# In all, about 2,900 compounds were measured (“NF-kB SEAP reporter activity, fold change vs agonist alone”: median about 0.99, highest 2% from about 2.6 on). The list shows a part of the results.
# Columns and labels:
# RAW-Dual [1] = experiment: NF-kB SEAP reporter activity, fold change vs agonist alone; cytotoxicity flag (confluency mask): cytotoxic (confluency <70% of control); higher = enhanced NF-kB activity
# How it was run: (§1)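 After 50 nL of library stock was delivered by pin tool to RAW-Dual macrophages (50,000 cells/well, DMEM, 384-well plates), a PRR agonist was added 1 h later and the plates were kept at 37 °C, 5% CO2. Twenty hours later, IRF was read from supernatant by QuantiLuc luminescence and NF-κB by QuantiBlue absorbance at 620 nm. Reporter activity is stated as fold change over agonist-alone wells. Wells with IncuCyte confluency under 70% of agonist controls in both mask sets were counted as cytotoxic.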
# RAW-Dual [2] = experiment: NF-kB SEAP reporter activity, fold change vs agonist alone; higher = enhanced NF-kB activity
# How it was run: as §1
# RAW-Dual [3] = experiment: NF-kB SEAP reporter activity, fold change vs agonist alone; cytotoxicity flag (confluency mask): not cytotoxic; higher = enhanced NF-kB activity
# How it was run: as §1
# [4] = agonist: ODN 1826 (TLR9) 0.5 ug/mL
# [5] = agonist: Pam2CSK4 (TLR2/6) 0.1 ug/mL
# [6] = agonist: Pam3CSK4 (TLR2/1) 0.1 ug/mL
# [7] = library stock concentration (final ~1000-fold dilution): 10 mM, cytotoxicity flag (confluency mask): not cytotoxic, agonist: Imiquimod (TLR7) […]
# [8] = library stock concentration (final ~1000-fold dilution): 10 mM, cytotoxicity flag (confluency mask): not cytotoxic, agonist: MPLA (TLR4) […]
# [9] = library stock concentration (final ~1000-fold dilution): 10 mM, cytotoxicity flag (confluency mask): cytotoxic (confluency <70% of control), agonist: Imiquimod (TLR7) […]
# [10] = library stock concentration (final ~1000-fold dilution): 10 mM, cytotoxicity flag (confluency mask): cytotoxic (confluency <70% of control), agonist: MPLA (TLR4) […]
smiles,measurement,setting,value
CC(C)c1cc(C(=O)N2Cc3ccc(CN4CCN(C)CC4)cc3C2)c(O)cc1O (library stock concentration (final ~1000-fold dilution): 10 mM),NF-kB SEAP reporter activity,RAW-Dual [1]; agonist: LPS (TLR4) 0.1 ug/mL,0.269
same,NF-kB SEAP reporter activity,RAW-Dual [1]; [4],0.183
same,NF-kB SEAP reporter activity,RAW-Dual [1]; [5],0.0845
same,NF-kB SEAP reporter activity,RAW-Dual [1]; [6],0.133
CC1Oc2cc(cnc2N)-c2c(nn(C)c2C#N)CN(C)C(=O)c2ccc(F)cc21 (stereo unspecified),NF-kB SEAP reporter activity,RAW-Dual [2]; [7],0.784
same,NF-kB SEAP reporter activity,RAW-Dual [2]; [8],0.872
CC1Oc2cc(cnc2N)-c2c(nn(C)c2C#N)CN(C)C(=O)c2ccc(F)cc21 (stereo unspecified) (library stock concentration (final ~1000-fold dilution): 10 mM),NF-kB SEAP reporter activity,RAW-Dual [3]; agonist: LPS (TLR4) 0.1 ug/mL,1.08
same,NF-kB SEAP reporter activity,RAW-Dual [3]; [4],0.894
same,NF-kB SEAP reporter activity,RAW-Dual [3]; [5],0.83
same,NF-kB SEAP reporter activity,RAW-Dual [3]; [6],0.793
Cn1nc(-c2cnc(N)c(-c3ccc(C(N)=O)c(F)c3)n2)nc1C1(c2ccccc2)CC1 (library stock concentration (final ~1000-fold dilution): 10 mM),NF-kB SEAP reporter activity,RAW-Dual [3]; agonist: LPS (TLR4) 0.1 ug/mL,1.2
same,NF-kB SEAP reporter activity,RAW-Dual [3]; [4],0.819
same,NF-kB SEAP reporter activity,RAW-Dual [3]; [5],0.852
same,NF-kB SEAP reporter activity,RAW-Dual [3]; [6],0.889
Cn1nc(-c2cnc(N)c(-c3ccc(C(N)=O)c(F)c3)n2)nc1C1(c2ccccc2)CC1,NF-kB SEAP reporter activity,RAW-Dual [2]; [7],1.01
same,NF-kB SEAP reporter activity,RAW-Dual [2]; [8],1.03
CCOC(=O)C1=C[C@]2(CC)CCCN3CCc4c(n1c1ccccc41)[C@@H]32,NF-kB SEAP reporter activity,RAW-Dual [2]; [7],0.79
same,NF-kB SEAP reporter activity,RAW-Dual [2]; [8],1.18
CCOC(=O)C1=C[C@]2(CC)CCCN3CCc4c(n1c1ccccc41)[C@@H]32 (library stock concentration (final ~1000-fold dilution): 10 mM),NF-kB SEAP reporter activity,RAW-Dual [3]; agonist: LPS (TLR4) 0.1 ug/mL,1.12
same,NF-kB SEAP reporter activity,RAW-Dual [3]; [4],1.02
same,NF-kB SEAP reporter activity,RAW-Dual [3]; [5],1.01
same,NF-kB SEAP reporter activity,RAW-Dual [3]; [6],1.06
COc1ccccc1O (library stock concentration (final ~1000-fold dilution): 10 mM),NF-kB SEAP reporter activity,RAW-Dual [3]; agonist: LPS (TLR4) 0.1 ug/mL,1.13
same,NF-kB SEAP reporter activity,RAW-Dual [3]; [4],0.994
same,NF-kB SEAP reporter activity,RAW-Dual [3]; [5],1.1
same,NF-kB SEAP reporter activity,RAW-Dual [3]; [6],1.15
COc1ccccc1O,NF-kB SEAP reporter activity,RAW-Dual [2]; [7],0.812
same,NF-kB SEAP reporter activity,RAW-Dual [2]; [8],0.931
CNC1C(O)C(OC2C(NC(=O)C(O)CN)CC(N)C(OC3OC(CN)C(O)C(O)C3O)C2O)OCC1(C)O.O=S(=O)(O)O (stereo unspecified) (library stock concentration (final ~1000-fold dilution): 10 mM water),NF-kB SEAP reporter activity,RAW-Dual [3]; agonist: LPS (TLR4) 0.1 ug/mL,1.03
same,NF-kB SEAP reporter activity,RAW-Dual [3]; [4],1.09
same,NF-kB SEAP reporter activity,RAW-Dual [3]; [5],1.3
same,NF-kB SEAP reporter activity,RAW-Dual [3]; [6],1.14
CNC1C(O)C(OC2C(NC(=O)C(O)CN)CC(N)C(OC3OC(CN)C(O)C(O)C3O)C2O)OCC1(C)O.O=S(=O)(O)O (stereo unspecified),NF-kB SEAP reporter activity,"RAW-Dual [2]; library stock concentration (final ~1000-fold dilution): 10 mM water, cytotoxicity flag (confluency mask): not cytotoxic, agonist: Imiquimod (TLR7) […]",0.944
same,NF-kB SEAP reporter activity,"RAW-Dual [2]; library stock concentration (final ~1000-fold dilution): 10 mM water, cytotoxicity flag (confluency mask): not cytotoxic, agonist: MPLA (TLR4) […]",1.01
COc1cc(CCC(C)=O)ccc1O,NF-kB SEAP reporter activity,RAW-Dual [2]; [7],0.986
same,NF-kB SEAP reporter activity,RAW-Dual [2]; [8],1.03
COc1cc(CCC(C)=O)ccc1O (library stock concentration (final ~1000-fold dilution): 10 mM),NF-kB SEAP reporter activity,RAW-Dual [3]; agonist: LPS (TLR4) 0.1 ug/mL,1.17
same,NF-kB SEAP reporter activity,RAW-Dual [3]; [4],1.03
same,NF-kB SEAP reporter activity,RAW-Dual [3]; [5],1.14
same,NF-kB SEAP reporter activity,RAW-Dual [3]; [6],0.982
O=C1N=C(NCc2cccs2)S/C1=C\c1ccc2ncccc2c1 (library stock concentration (final ~1000-fold dilution): 10 mM),NF-kB SEAP reporter activity,RAW-Dual [3]; agonist: LPS (TLR4) 0.1 ug/mL,0.926
same,NF-kB SEAP reporter activity,RAW-Dual [3]; [4],0.846
same,NF-kB SEAP reporter activity,RAW-Dual [3]; [5],1.24
same,NF-kB SEAP reporter activity,RAW-Dual [3]; [6],1.15
O=C1N=C(NCc2cccs2)S/C1=C\c1ccc2ncccc2c1,NF-kB SEAP reporter activity,RAW-Dual [2]; [7],0.94
same,NF-kB SEAP reporter activity,RAW-Dual [2]; [8],1.14
Cc1c[nH]c2nc(Nc3ccc(N4CCN(C)CC4)c(F)c3)nc(-c3cccc(CC#N)c3)c12 (library stock concentration (final ~1000-fold dilution): 10 mM),NF-kB SEAP reporter activity,RAW-Dual [1]; agonist: LPS (TLR4) 0.1 ug/mL,0.261
same,NF-kB SEAP reporter activity,RAW-Dual [1]; [4],0.179
same,NF-kB SEAP reporter activity,RAW-Dual [1]; [5],0.0754
same,NF-kB SEAP reporter activity,RAW-Dual [1]; [6],0.204
Cc1c[nH]c2nc(Nc3ccc(N4CCN(C)CC4)c(F)c3)nc(-c3cccc(CC#N)c3)c12,NF-kB SEAP reporter activity,RAW-Dual [2]; [9],0.131
same,NF-kB SEAP reporter activity,RAW-Dual [2]; [10],0.265
CC(=O)OC1CC2CCC3C(CCC4(C)C3CC([N+]3(C)CCCCC3)C4OC(C)=O)C2(C)CC1N1CCCCC1 (stereo unspecified) (library stock concentration (final ~1000-fold dilution): 10 mM),NF-kB SEAP reporter activity,RAW-Dual [3]; agonist: LPS (TLR4) 0.1 ug/mL,1.04
same,NF-kB SEAP reporter activity,RAW-Dual [3]; [4],1.02
same,NF-kB SEAP reporter activity,RAW-Dual [3]; [5],0.945
same,NF-kB SEAP reporter activity,RAW-Dual [3]; [6],1.01
CC(=O)OC1CC2CCC3C(CCC4(C)C3CC([N+]3(C)CCCCC3)C4OC(C)=O)C2(C)CC1N1CCCCC1 (stereo unspecified),NF-kB SEAP reporter activity,RAW-Dual [2]; [7],0.939
same,NF-kB SEAP reporter activity,RAW-Dual [2]; [8],0.965
C=CC(=O)N1CCN(CCCn2c(=O)c(-c3c(Cl)c(OC)cc(OC)c3Cl)cc3cnc(NC)nc32)CC1 (library stock concentration (final ~1000-fold dilution): 10 mM),NF-kB SEAP reporter activity,RAW-Dual [3]; agonist: LPS (TLR4) 0.1 ug/mL,3.2
same,NF-kB SEAP reporter activity,RAW-Dual [3]; [4],1.05
same,NF-kB SEAP reporter activity,RAW-Dual [3]; [5],0.933
same,NF-kB SEAP reporter activity,RAW-Dual [3]; [6],1.15
C=CC(=O)N1CCN(CCCn2c(=O)c(-c3c(Cl)c(OC)cc(OC)c3Cl)cc3cnc(NC)nc32)CC1,NF-kB SEAP reporter activity,RAW-Dual [2]; [7],0.952
same,NF-kB SEAP reporter activity,RAW-Dual [2]; [8],1.23
COc1cc(C2c3cc4c(cc3C(OC3OC5COC(C)OC5C(O)C3O)C3COC(=O)C23)OCO4)cc(OC)c1O (stereo unspecified) (library stock concentration (final ~1000-fold dilution): 10 mM),NF-kB SEAP reporter activity,RAW-Dual [3]; agonist: LPS (TLR4) 0.1 ug/mL,1.28
same,NF-kB SEAP reporter activity,RAW-Dual [3]; [4],1.1
same,NF-kB SEAP reporter activity,RAW-Dual [3]; [5],1.19
same,NF-kB SEAP reporter activity,RAW-Dual [3]; [6],0.954
COc1cc(C2c3cc4c(cc3C(OC3OC5COC(C)OC5C(O)C3O)C3COC(=O)C23)OCO4)cc(OC)c1O (stereo unspecified),NF-kB SEAP reporter activity,RAW-Dual [2]; [7],1.04
same,NF-kB SEAP reporter activity,RAW-Dual [2]; [8],1.17
CN(C)CC/C=C1/c2ccccc2Sc2ccc(Cl)cc21.Cl,NF-kB SEAP reporter activity,RAW-Dual [2]; [10],1.48
CN(C)CC/C=C1/c2ccccc2Sc2ccc(Cl)cc21.Cl (library stock concentration (final ~1000-fold dilution): 10 mM),NF-kB SEAP reporter activity,RAW-Dual [1]; agonist: LPS (TLR4) 0.1 ug/mL,1.25
same,NF-kB SEAP reporter activity,RAW-Dual [1]; [4],0.335
same,NF-kB SEAP reporter activity,RAW-Dual [1]; [5],0.745
same,NF-kB SEAP reporter activity,RAW-Dual [1]; [6],0.765
CCCSc1nc(NC2CC2c2ccc(F)c(F)c2)c2nnn(C3CC(OCCO)C(O)C3O)c2n1 (stereo unspecified),NF-kB SEAP reporter activity,RAW-Dual [2]; [9],1.05
same,NF-kB SEAP reporter activity,RAW-Dual [2]; [10],0.94
CCCSc1nc(NC2CC2c2ccc(F)c(F)c2)c2nnn(C3CC(OCCO)C(O)C3O)c2n1 (stereo unspecified) (library stock concentration (final ~1000-fold dilution): 10 mM),NF-kB SEAP reporter activity,RAW-Dual [1]; agonist: LPS (TLR4) 0.1 ug/mL,1.04
same,NF-kB SEAP reporter activity,RAW-Dual [1]; [4],0.615
same,NF-kB SEAP reporter activity,RAW-Dual [1]; [5],0.51
same,NF-kB SEAP reporter activity,RAW-Dual [1]; [6],0.332

# From the supplement of paper PMC10037445
